# Data reported in the supplement of paper PMC3334620.
# In all, about 33,000 sequences were measured (“E-score (-0.5 to 0.5)”: median about -0.056, highest 2% from about 0.38 on). The list shows a part of the results.
# Target: Stb4 (UniProt P50104)
# Assay: PBM E-score (8-mer binding enrichment) (E-score (-0.5 to 0.5)); higher = stronger / more preferred TF binding; most listed sequences are background and not binding sites
# Settings: protein concentration: 200 nM; construct: GST-DNA-binding domain
# Outline: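 Detection of bound protein used fluorescent anti-GST, with scans normalised by masliner. The proteins were GST-tagged yeast transcription factors applied at about 100-200 nM to universal all-10-mer Agilent arrays made double-stranded by primer extension. Each ungapped eight-base word, pooled with its reverse complement, was scored with an E-score from the Universal PBM Analysis Suite.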
row,Sequence,PBM E-score
1,AGATTAAA,-0.0781
2,CCATTGAC,-0.243
3,ATTCTAAA,-0.0011
4,TCCGTTCA,0.191
5,AGAGTACG,-0.0851
6,CATAGGAA,-0.13
7,GGCTATGA,0.111
8,TATTTGGA,-0.048
9,GAGGACCA,-0.0556
10,CCACGAGA,-0.144
11,AGTCCTCC,-0.0813
12,CCCAGACA,-0.121
13,GCACTGAC,-0.0863
14,CCCGATGC,0.349
15,GCCCTGGA,-0.0528
16,ACACAAAC,0.0313
17,ACACCAGT,-0.269
18,AGAACCCA,-0.243
19,CTAGAGTA,-0.0966
20,AATTCGTC,-0.0958
21,ATCAATAG,-0.11
22,CTCCCTCA,-0.23
23,AACCCTTC,0.00281
24,ATAGGACA,-0.399
25,CCACGTTA,-0.168

row,Sequence,PBM E-score
1,AAATGGGG,-0.344
2,ACTATCCA,0.0303
3,CGCGCAAC,-0.0443
4,ATGGACCA,-0.138
5,GTGTGTTA,-0.0591
6,ATCCGTGC,0.285
7,AATCTAAT,-0.0701
8,CGGCGGAA,0.408
9,AGGTTAGA,-0.0231
10,AGTTCACA,-0.153
11,TCAATCAA,-0.11
12,ATCCCCCC,-0.15
13,CGTATATC,-0.105
14,ACCGCAAC,0.142
15,CGTGCCTA,-0.149
16,CTCAGGCC,-0.198
17,CTTTTCCA,-0.00677
18,ACTCCGCT,-0.0692
19,AGTACTCG,0.0502
20,CGCCAGGC,0.0543
21,AAGTGAAG,-0.249
22,AAACGGCT,0.108
23,ATGGAGTG,-0.277
24,ACTATCAT,0.0307
25,TAGGGGAA,-0.224

row,Sequence,PBM E-score
1,ACAGTCCC,0.0467
2,GCATGCAC,-0.242
3,CCGAATCA,0.361
4,GCCATTAA,-0.0602
5,GACTCCCA,-0.0601
6,GCGTTATA,-0.14
7,GACACGAA,-0.124
8,GGGTCGTA,0.068
9,CATGGGTC,-0.162
10,GAATCAAC,0.0993
11,AGCTCTAG,-0.12
12,TACGTGCA,-0.0413
13,CACATCAA,-0.0888
14,AGAAGGAT,-0.306
15,CCTTGAAG,-0.197
16,ACCCCATA,0.167
17,CAACGGAC,0.0791
18,ATGGGCCC,0.0804
19,CTTCGTGC,-0.0909
20,AGGGCGTC,0.172
21,TCCCGACA,0.355
22,AAAGAATA,-0.263
23,GTCCTCTA,-0.27
24,AGACTTCA,-0.223
25,AATAAGAA,0.0781

row,Sequence,PBM E-score
1,ACGCCAGC,-0.254
2,TAGCCTCA,-0.198
3,GGCGACTA,-0.107
4,CTCAATCC,0.0397
5,CTCCCCTA,0.0813
6,ATTTTACA,-0.174
7,CGCTTGCA,-0.138
8,CGCCGCAG,-0.0602
9,AAAACACC,0.118
10,CTTCAGCC,-0.0696
11,ACGTAGCG,-0.15
12,ACGACAAA,0.129
13,AGCAGGCA,-0.196
14,TACCACAA,0.0502
15,TCCTAACA,-0.279
16,AGTCGATC,0.115
17,AATTGGTA,-0.124
18,GCTGTCTA,-0.0324
19,CGATTCAG,-0.0824
20,CCATTAGC,-0.194
21,CAAGGTCG,-0.0307
22,AAGAGTCT,-0.241
23,CACTGAAG,0.0166
24,CGGGCCTC,0.112
25,CGAGTTAA,0.161

row,Sequence,PBM E-score
1,CGTAATTA,-0.0276
2,CGTACGAC,-0.169
3,CAGATCAC,-0.15
4,GGAGTCGA,-0.0684
5,CGATGGAG,0.211
6,ACTGGGAT,-0.0522
7,CGGCAGGC,0.188
8,AGGCAAGG,-0.167
9,ACATATAC,-0.00625
10,ATGGACGG,0.161
11,CGGCGGGC,0.212
12,GGTAGTTA,0.127
13,ACGCTGGG,-0.236
14,GTGATTCA,-0.278
15,ACGACGCC,-0.172
16,ATGCGAGA,-0.117
17,CCGCTGCC,0.127
18,CAAATACC,0.00475
19,CAGTCCGC,-0.139
20,CACCGTGG,-0.249
21,GGCTGCGA,0.147
22,AGCTAAAG,-0.158
23,CATCAAAG,-0.21
24,ACTACGTG,-0.182
25,AAACCTTA,-0.124

row,Sequence,PBM E-score
1,AAACTATA,-0.0587
2,GAGATCTC,0.106
3,ATCCTGTA,-0.141
4,AGCAAATG,-0.266
5,GGCATTAC,0.139
6,TAGAGACA,-0.195
7,ATCGTGAG,-0.0289
8,CGCGTCAA,-0.137
9,AGCCAAAC,0.118
10,CGAATCTC,0.181
11,ATACTAAA,0.00699
12,CAATCGGG,0.265
13,CTGCGTCC,-0.195
14,GGCTTTAA,-0.0247
15,ATGGTGGC,-0.116
16,GAGTCATA,0.0498
17,ATATTTAC,0.0859
18,GGAACGGA,0.34
19,AAAAGTGA,-0.132
20,AGTAACAA,-0.0467
21,CGCCTACA,-0.273
22,CGCCTAGC,-0.0997
23,GCACGCAA,-0.0545
24,GGAATATA,0.269
25,CTACAGAG,-0.0698

row,Sequence,PBM E-score
1,TATGTAGA,-0.136
2,AGATGAGC,-0.238
3,CACGAGGA,-0.11
4,CCGAGCTA,0.424
5,CATGCAAG,-0.147
6,AATAAGCA,-0.213
7,GAACGAGC,0.0357
8,AGGGTCGC,0.0637
9,CCGGGCTC,0.147
10,ACGCCAAG,-0.162
11,AGTCTTGA,-0.157
12,AACTGGAC,-0.171
13,ACTGGGGA,-0.2
14,ATACGCAA,-0.238
15,CGATTCAC,0.0534
16,AAGAAGCG,-0.256
17,AGGACACG,0.223
18,AATTATCA,-0.136
19,CGCTGGAG,-0.175
20,CACGAACG,-0.0559
21,CTAACGTC,-0.0355
22,GAGTGACA,-0.0468
23,GAGGACTA,-0.151
24,ACCGCCTG,-0.115
25,ATCTACCA,-0.135

row,Sequence,PBM E-score
1,ATGCCTAA,-0.141
2,GCGGGAAC,0.24
3,GATGGTGA,-0.00467
4,CCCACCAC,0.0119
5,GACTGCGA,-0.135
6,AACCTCCA,-0.123
7,TCATTCGA,-0.206
8,TAGATAGA,-0.148
9,AAACCGGG,0.129
10,CCAACGCC,-0.0552
11,ATTGCAAC,0.0402
12,CAAGCTGG,-0.241
13,GCTGCTGA,-0.183
14,AGGTGCGA,-0.133
15,AGAAAGAA,-0.0401
16,CTGGAAGA,-0.112
17,ATTTTTCC,0.264
18,AACTGCGA,0.0202
19,AACCCCAG,-0.184
20,AACCCCCG,0.247
21,AAAGAACC,0.0688
22,AAAGGCCT,-0.268
23,GCAGCGTA,-0.154
24,AACTTTCA,-0.0247
25,CTGACCGA,0.107

row,Sequence,PBM E-score
1,GCTCTCCA,-0.362
2,CTAGTTCA,-0.107
3,AGGGATAG,-0.0761
4,AGATCGGC,0.189
5,CTTTTTGC,0.0383
6,AGATGTAG,-0.065
7,TACTGATA,0.137
8,AGTCACAC,-0.192
9,GCGCGTAA,-0.0365
10,ATTTAGAC,-0.0764
11,ACCGAACC,0.336
12,ATGCTAGA,-0.124
13,GGCGTATA,-0.128
14,AAGTTATA,-0.0816
15,ACGGAGAC,0.12
16,GCTAGCGA,-0.056
17,ACAAAGCG,-0.0861
18,GATTAACA,-0.0378
19,ATGGATGG,-0.177
